The whole screen tested about 52,000 compounds, of which about 4,300 (8.3%) were called active. Rule as the data show it: active = survival mostly below about 52% (no sharp cut-off); inactive = mostly above about 56%. Some of the results follow.

For the assay, the system named is DeltatarO mutant. Nature of the assay: S. aureus survival, RN4220 and DeltatarO strains – OD600, teichoic acid synthesis inhibitors, primary screen (AID 463173). The note with it: S. aureus RN4220 wild type/DeltatarO growth, OD600, 18 h, hits give low values, screened at 18.75 µg/mL (by protocol).
For the molecule `CCCCOc1ccc(C(=O)Nc2onc3c2CCCC3)cc1`, the survival was active: 49%.
Regarding `COC(=O)C1CCN(C(c2ccccc2Cl)c2sc3nc(-c4ccco4)nn3c2O)CC1` (stereo unspecified), the survival is inactive: 99%.
As to `CCOC(=O)CN1C(C(=O)c2ccccc2)=C(OC(=O)c2ccccc2)c2ccccc2S1(=O)=O`, the survival is inactive: 56%.
`Cc1cc(C)cc(NC(=O)Nc2cccs2)c1`: the survival was active: 26%.
Consider `COCCNC(=O)CSc1nnc(NC(=O)Nc2ccc(C)cc2)s1`, for which the survival is inactive: 81%.
For `CCc1ccc(-n2c(N3CCN(c4cccc(C)c4C)CC3)nc3ccccc3c2=O)cc1`, the survival is inactive: 84%.
With `O=C(NC1CCCCC1)C(c1ccco1)N(C(=O)C1COc2ccccc2O1)c1cccc(F)c1` (stereo unspecified), the survival was inactive: 74%.
As to `Cc1ccc(Nc2nc(N)nc(N)c2S(=O)(=O)c2ccccc2)cc1`, the survival is inactive: 66%.
For `Cc1nc2ccn(Cc3cccnc3)c(=O)c2cc1C(=O)N1CCN(c2ccccc2)CC1` the value was inactive: 105%.
On to `CC(C)N1CC=C2C(C1)C(c1ccccc1Cl)C(C#N)=C(N)C2(C#N)C#N` (stereo unspecified), for which the survival was inactive: 95%.
For `Cc1ccc(C)c(NC(=O)Cn2cnc3nc4c(cc3c2=O)CCCC4)c1`, the survival is inactive: 89%.
`COc1ccccc1N1CCN(C(=O)C2CCCN(S(=O)(=O)c3ccc4c(c3)oc(=O)n4C)C2)CC1` (stereo unspecified): the survival was inactive: 83%.
For the molecule `CCOC(=O)c1cccc(NC(=O)c2ccc3snnc3c2)c1`, the survival is inactive: 52%.
Consider `Cc1ccc(NC(=O)CC2Sc3ccccc3NC2=O)c(Br)c1` (stereo unspecified), for which the survival is inactive: 132%.
Turning to `O=C(NCCS(=O)(=O)N1CCN(c2cccc(Cl)c2)CC1)c1cc(=O)c2ccccc2o1`, the survival is inactive: 80%.
Take `CC(Cc1ccccc1)N=C1NS(=O)(=O)c2ccccc21` (stereo unspecified): the survival was inactive: 81%.
For `CCOC(=O)c1cc(NC(=O)c2ccc(OC)cc2)c(=O)n2c1oc1ccc(Cl)cc12`, the survival was active: 46%.
For `CCn1c(CNC(=O)C23CC4CC(CC(C4)C2)C3)nnc1SCC(=O)Nc1ccc(F)cc1`, the survival is inactive: 71%.
With `CC1Cc2ccccc2N1C(=O)CSc1nnc(-c2cccc(Cl)c2)o1` (stereo unspecified), the survival was active: 34%.
For `CCOc1ccc(CCNC(=O)c2cc3c(=O)n(C)c4ccccc4c3n2C)cc1` the value was inactive: 71%.
Regarding `O=C(CCc1ccccc1)NCc1ccc2c(c1)CCN2C(=O)c1ccc(Cl)cc1`, the survival is inactive: 77%.
Regarding `Cc1ccc(-n2c(=O)c3cccnc3n2CC(=O)NCc2ccc(F)cc2)cc1C`, the survival was inactive: 43%.
Regarding `O=C(c1ccccc1)N1CC(=O)N2CCc3ccccc3C2C1` (stereo unspecified), the survival was inactive: 96%.
Regarding `Cc1ccc(CNC(=O)CN2CCCN(Cc3ccc(F)cc3)S2(=O)=O)cc1`, the survival was inactive: 67%.
As for `CCN(CC)S(=O)(=O)c1ccc2c(c1)N(CC(=O)Nc1c(C)cc(C)cc1C)C(=O)C1CCCN21` (stereo unspecified), the survival is inactive: 64%.
As for `Cc1cc(C)c(/C=C/c2onc(C)c2S(=O)(=O)N2CCC(C(=O)Nc3ccc(Cl)c(C(F)(F)F)c3)CC2)c(C)c1`, the survival is inactive: 67%.
For `O=C(COc1ccccc1F)Nc1ccc(Cl)c(-c2nc3ccccc3[nH]2)c1` the value was active: 33%.
In the case of `COc1ccc(NC(=O)CSc2nccn2Cc2ccco2)cc1OC`, the survival was inactive: 73%.
The value for `CC1=C(c2ccc(C)c(C)c2)S(=O)(=O)N=C1N1CCC(C(=O)NCc2ccc(Cl)cc2)CC1` was inactive: 75%; that for `CCOc1ccc(C=Nc2ccc3c(c2)ncn3C)cc1` was inactive: 96%.
As for `O=C(NCCC1=CCCCC1)c1ccc2c(c1)N(Cc1ccc(Cl)cc1)C(=O)c1ccccc1S2=O` (stereo unspecified), the survival was inactive: 63%.
`COc1ccc(-n2c(=O)c3c(c4cc(OC)ccc4n3C)n(C)c2=O)cc1`: the survival is inactive: 80%.
Consider `CCOc1ccc(NC(=O)Cn2cc(C(=O)c3ccc(CC)cc3)c(=O)c3ccc(C)nc32)cc1`, for which the survival was inactive: 107%.
Turning to `CCOC(=O)c1cccc(NC(=O)c2cnc(N3CCCCC3)c3ccccc23)c1`, the survival is inactive: 99%.
On to `Cc1noc2ncnc(NCc3ccccc3Cl)c12`, for which the survival is inactive: 123%.
The value for `CCOc1ccc(NC(=O)C(=O)NCCc2csc(-c3ccc(C)cc3)n2)cc1` was inactive: 81%; that for `COc1ccc(NC(=O)c2sc3nc(C)c(C(=O)Nc4ccc(C)cc4C)c(-c4cccs4)c3c2N)cc1` was inactive: 81%.
In the case of `COc1ccc(OC)c(NC(=O)c2sc3nc4c(cc3c2N)CCCCCC4)c1`, the survival was inactive: 56%.
Regarding `Cc1ccc(C)c(N2CCN(C(c3ccc(F)cc3)c3nnc(-c4ccccc4)o3)CC2)c1` (stereo unspecified), the survival is active: 16%.
`CCN(Cc1ccccc1)C(=O)Cn1c(=O)oc2cc(S(=O)(=O)N3CCCCCC3)ccc21`: the survival was inactive: 98%.
For `Cc1ccccc1CSc1cn(CC(=O)N2CCCC2)c2ccccc12` the value was inactive: 58%; for `Cc1cccc(Cn2c(=O)n(-c3ccc(Cl)c(Cl)c3)c(=O)c3c(C)c(C)sc32)c1`, inactive: 103%.
For `COc1ccccc1NC(=O)c1nc(SCc2ccc(F)cc2)ncc1Cl`, the survival is inactive: 77%.
The value for `CCc1ccc(N2CCn3c2nc2c3c(=O)n(CCc3ccccc3)c(=O)n2C)cc1` was inactive: 82%; that for `Cc1ccc2nc(NC(=O)CSc3nccn3Cc3ccccc3)sc2c1` was active: 37%; that for `Cc1oc2c(c1C(=O)Nc1ccc(C(=O)O)cc1)CCCC2` was inactive: 92%.
The value for `CCOCCc1nnc(NC(=O)C(=O)c2cc(C)n(-c3cccc(Cl)c3)c2C)s1` was inactive: 55%.
On to `COc1cc(NC(=O)c2cc(-c3cccc(Cl)c3)on2)c(OC)cc1Cl`, for which the survival is inactive: 61%.
On to `Clc1ccc(-c2nc3ccccn3c2Nc2ccc3c(c2)OCCO3)s1`, for which the survival is inactive: 87%.
Regarding `Cc1ccc(N(CC(=O)N2CCN(c3cc(Cl)ccc3C)CC2)S(=O)(=O)c2c(C)noc2C)cc1`, the survival is inactive: 74%.
With `COc1cc(-c2nnn(CC(=O)NCc3ccccc3)n2)cc(OC)c1OC`, the survival was inactive: 78%.
With `Cc1cnc2c(c1SCC(=O)NCc1ccc(F)cc1)c(=O)n(C)c(=O)n2C`, the survival was inactive: 88%.
For the molecule `c1ccc2c(c1)ncn2-c1ncnc2sc3c(c12)CCCC3`, the survival was inactive: 82%.
For `Cc1cccc(N2CCN(c3ncnc4c3c(-c3ccccc3)cn4-c3ccccc3)CC2C)c1` (stereo unspecified) the value was inactive: 90%; for `CCOc1ccc(-c2cc(C(=O)N3CCN(c4ccc(C)cc4)C(C)C3)c3ccccc3n2)cc1` (stereo unspecified), inactive: 94%; for `COc1ccc(-c2nnn(CC(=O)N(c3ccccc3)C(C(=O)NC3CCCC3)c3ccco3)n2)cc1` (stereo unspecified), inactive: 65%.
